Experimental data published in the supplement of paper PMC10126150.
Sequences with one replicate were seen in a single cluster, so their values are uncertain.

Tested on: ATP
Experiment: switch fluorescence ratio, 500 uM ATP over buffer (Cy3 cluster intensity, sum of 5 cycles each) (fold (ratio)); higher = stronger signal-on switching upon ATP binding; sequences stand for … in TCGTCGGCAGCGTCAGATGTGTATAAGAGACAGTTTTTTTTTTTTTTTTTTTTTTTTT…TC
Details: aptamer strand: ATP DNA aptamer (quencher-CACCTGGGGGAGTATTGCGGAGGAAGG + anchor), 100 nM annealed; ATP concentration: 500 uM; one replicate
Summary of the method: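 The quencher-labelled ATP aptamer, at 100 nM, was annealed to Cy3-labelled switching-strand clusters on a modified Illumina MiSeq flow-cell. The clusters were imaged in selection buffer, then after 15 min with 500 uM ATP at 22 °C, and this buffer/ATP cycle ran five times with NaOH stripping and re-annealing between runs. Per-cluster fluorescence ratios, summed target-cycle over summed buffer-cycle Cy3 intensity, were averaged per switch-domain sequence. Clusters outside 100-1000 RFU were excluded.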
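Further: ATP exposure 15 min at 22 °C before imaging.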

Row | Sequence | switch fluorescence ratio
1 | CTCATTGAAT | 0.971
2 | CGACGAGGCG | 1.01
3 | CAATGGGAAT | 0.983
4 | GTGAGATTCG | 0.916
5 | CCCGAAAAAC | 1.24
6 | AACCCAAACT | 1.05
7 | AGTTGTCCAG | 0.972
8 | GGCTGATAGC | 0.977
9 | CGTTAGTCAC | 0.97
10 | GGTTGACACC | 0.982
11 | GTGTAGCGCA | 0.995
12 | ATGCTCTTCC | 1.83
13 | AATGCCCTTT | 0.979
14 | TTAAAGAAGA | 1.06
15 | ACGCTATATC | 3.24
16 | GCATTTTACG | 1.03
17 | CGGTGGCTCT | 1
18 | AGCACATACG | 2.16
19 | ACATTACAAT | 1.2
20 | GTTTGCATGA | 1.01
21 | GATGATTTAC | 1.07
22 | ATTGCCAATA | 0.955
23 | TTCTAGTCCC | 1.01

Row | Sequence | switch fluorescence ratio
24 | ACGAAAC | 1.17
25 | GCGATATCAT | 0.951
26 | ACCGTTGTGG | 0.98
27 | TCCGGTACTA | 1.2
28 | TGAACATAGG | 1.02
29 | GTGGAATTAG | 1.01
30 | GCATAGCGAC | 1.32
31 | GGTGCGTACA | 0.997
32 | ATACGTTCAA | 1.13
33 | AGGGGAAAA | 0.943
34 | ACTTCTGTCG | 0.977
35 | ATTTATGCC | 1.07
36 | GTTGTCAGG | 0.986
37 | GTTAGGAAGG | 0.965
38 | CGGGATTCTA | 0.982
39 | TTTAGACCGC | 1.02
40 | ATGTTATCCA | 1
41 | CTTGTCACAA | 0.971
42 | GTGCCGAGCT | 1.01
43 | TGAGAATCAT | 0.991
44 | CAAATTTGAG | 1.01
45 | CGTCGAATTA | 1.02
46 | TGATACGGGC | 1.07

Row | Sequence | switch fluorescence ratio
47 | CTCGACAAGT | 1.04
48 | AGCCTAGATA | 1.01
49 | ATTCAAGATC | 0.989
50 | CATAGACTC | 1.02
51 | CTAGAACAGG | 1.03
52 | CGTATGGGTT | 1.01
53 | CGGATGCAGT | 0.977
54 | TGAACGCGGG | 0.978
55 | GAGGCAGCAG | 1.07
56 | CGCCTCCCGT | 1.54
57 | GGGATCTTAT | 0.963
58 | TACTCAACAC | 1.29
59 | GTAATTCGCA | 1.06
60 | GCGTTGCAC | 0.989
61 | CATATATAGA | 0.97
62 | TGTGTACAGC | 1.06
63 | CTAGTGGTTC | 0.958
64 | GGGTTTCTA | 0.997
65 | GCTACCCTCA | 1.04
66 | TCTCTGTGGT | 1.01
67 | TGACCTAAAA | 0.982
68 | TTAGTGGTTA | 0.991
69 | GTCCGGGTAA | 1.07

Row | Sequence | switch fluorescence ratio
70 | CTAGGGTATT | 0.991
71 | TGTAGTGTGG | 0.963
72 | ACGGGTCACT | 1.07
73 | ATGGCTATG | 1.01
74 | ATTGTAGCTA | 0.988
75 | GTTAGCGGTA | 0.946
76 | GCAAGTATAT | 0.974
77 | CCACGATTA | 1.15
78 | TCAGGCACT | 1.02
79 | TTAGCATTGC | 1.17
80 | CGAAACGCGT | 0.966
81 | AGGACGCT | 1.05
82 | TCGACTTTCG | 0.986
83 | AAAGGGAACG | 1.12
84 | GTGTGGGATG | 1.02
85 | TCTTCGGCGT | 0.973
86 | ATATTGTGT | 0.981
87 | GGTTGCTCAG | 0.973
88 | ATACGTTGGT | 0.977
89 | TCTATATGG | 1.04
90 | GAAGAGTCAG | 1.01
91 | AGGCGCCACA | 0.989
92 | TGGCTGGTTA | 0.957

Row | Sequence | switch fluorescence ratio
93 | AGCTATCCTG | 1.01
94 | GGCAGATAGC | 1.08
95 | TTCCTTACGC | 1.27
96 | GCGACATTTA | 1.04
97 | CGTATGTACT | 1.02
98 | GAGTTAGGTT | 0.978
99 | TTTCGTCCCA | 1.03
100 | GAGCGGCGAA | 1.02
101 | AACTTGCGCC | 1.02
102 | CGGTCATGG | 1.03
103 | CCGGTTCAAT | 2.9
104 | AGAGGGCACA | 0.948
105 | TGATAAAATG | 1
106 | GTGTGAGGAT | 1
107 | AGGTTTTAAT | 1
108 | ATGGGGCGGT | 0.923
109 | CCTGGGGACA | 1.02
110 | TAGAGTTAAT | 0.983
111 | GCTAAGTTGT | 0.955
112 | GATCGTAGTG | 0.95
113 | TCACTATTCA | 1.07
114 | CAAAGCCTAT | 0.999
115 | TGTGGCCTCC | 1.02

Row | Sequence | switch fluorescence ratio
116 | CCGGCACTTA | 1.12
117 | AAGATGCGTG | 0.953
118 | CAGACCTTGA | 1.03
119 | TGTGCTTTTC | 0.97
120 | TGGAGATCAG | 1.02
121 | AGTGTCAAC | 0.966
122 | GACTATAGTA | 1.02
123 | ACTCGTGCGC | 1.05
124 | TTCTTTAAGG | 1.02
125 | TCGATATAAC | 1.01
126 | CCTTTCCTAC | 2.26
127 | GTGACGTCC | 0.996
128 | CGGAGTATTT | 1.04
129 | TAAATGCGAG | 1.01
130 | CGTTGGTCGT | 0.99
131 | GCCTCGGGTC | 0.988
132 | GGAGAGGAGC | 1.01
133 | AGAGTAAAGA | 1.05
134 | TCGTACTAAT | 1.01
135 | ACGTTGGTCA | 1.01
136 | CTGTAGCGTA | 1.15
137 | ATTACAGTAG | 1.03
138 | TTTGGGGCA | 1.02

Row | Sequence | switch fluorescence ratio
139 | GCATCAGCGC | 0.992
140 | CGAAGTCCGC | 2.04
141 | GTCCTTAGGT | 0.973
142 | GCTTGACATT | 0.988
143 | GCTTGTGGCA | 0.999
144 | CCACGTCAGT | 1.05
145 | TTACACATGG | 1.07
146 | AGGTAGTGGT | 0.996
147 | TTTCCCTGTG | 1.11
148 | GGGCAAGCTC | 1.26
149 | AGAACCGTAG | 1.07
150 | AGGGTATGG | 1.02
151 | GATGCCGTCC | 1.05
152 | TAACTATAGT | 0.963
153 | GACGCACCGT | 1.49
154 | CCAGAGGACT | 1.02
155 | CCCCGGTGAA | 2.09
156 | TAAGATAGTT | 1.03
157 | GTTATATCGA | 0.995
